# From publication PMC12136788
# This is one part of the list.
# T1: UNK ZnF1-3 (human, UniProt Q9C0B0 31-174)
# T1 sequence: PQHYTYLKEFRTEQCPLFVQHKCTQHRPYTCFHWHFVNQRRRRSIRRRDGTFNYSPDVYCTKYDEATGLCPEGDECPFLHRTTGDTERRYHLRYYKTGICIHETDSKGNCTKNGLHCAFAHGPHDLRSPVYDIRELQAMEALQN
# B1: chr15:80429895:80429896:+_ENSG00000086666_ENST00000558494|hu_hu|motif|central (ssRNA)
# RNA: GGGAGUUCUACAGUCCGACGAUCUCAAGAAUUUUGUAUUCCAGCAGGAGUUCAAAUCUUUUGGAUCUUUUCACCAACAACGGCUGGAUUUUCUUUUCUGAUUUUCUCAGCAGCAUCGGCUUUGUAAUUGUAAGAGCAAUUGUGCAACAGAGGAUUGAGCAUCA
# B2: 35989974_35990094_3696_CDS_ENSMUSG00000061607_ENSMUST00000082337|mouse|control|control (ssRNA)
# RNA: GGGAGUUCUACAGUCCGACGAUCGAUAACAGGCUGUUCUAUAGAGGUGAGAGGCUGAAGUUCAGGGCCAGUGGAGACAACUGAUUCUGGGGUCCUGACAGAAGACUUACGUGGUCUGCCCCGAGUGACCCGAGAAGUGGGUUUCAACAGAGGAUUGAGCAUCA
# B3: 107164976_107165096_396_CDS_ENSG00000125266_ENST00000245323|human|control|control (ssRNA)
# RNA: GGGAGUUCUACAGUCCGACGAUCGGCACAGUUGAGGAGAGGGGUAUUUUCCUUCUUAAUAGUGCAUCUGUCUGCUUGGUCUUUAUCAACCAUAUAAACUUUAUAAUAUUCAUACUGGCCAACAGUUUUAGAGUCCACUUUGGGCAACAGAGGAUUGAGCAUCA
# B4: chr3:179287964:179287965:+_ENSG00000136518_ENST00000429709|hu_hu|hu_hu_hu_mus_True|8_58 (ssRNA)
# RNA: GGGAGUUCUACAGUCCGACGAUCCUUGAGUGGUGAGAUGGCCUCCAUGUUCUCCCUGGGCACGCGGAGGGCAUUGGUAUCUAUGUAGUAGGUGGGCCCGCCCUGCUUGCCUUUGUCACCAUCAAUCUCCAUUAAUGUACUUCCCAACAGAGGAUUGAGCAUCA
# B5: chr8:59359966:59359967:+_ENSG00000215114_ENST00000399598|hu_hu|FALSE|FALSE (ssRNA)
# RNA: GGGAGUUCUACAGUCCGACGAUCCGCAAAUUCAGGACGAGACUGUACAAUAAAGUUCCGGACAUCCAGGAUCCUGUGUGUACUAUUGAAUCUUUGUAUCAAACGACUCCCAUCUGCUAACCUGAUUUGAAUUUUUGUUGUUGGCAACAGAGGAUUGAGCAUCA
# B6: chr11:46405157:46405158:+_ENSG00000110492_ENST00000395566|hu_hu|hu_hu_hu_mus_False|28_88 (ssRNA)
# RNA: GGGAGUUCUACAGUCCGACGAUCCCCUCCCCACUUUGGGCACUUGGUGAGAGGGACAGAGGACAGGCGUGAUUGACAGAGCUGACAGGAAGACAAAAGGCACUGGUGGGUCACAUCUUGGGCCUGUGGGAGAGGAGGGCUCCGCAACAGAGGAUUGAGCAUCA
# B7: 25140584_25140782_2291_CDS_ENSMUSG00000026965_ENSMUST00000028341|mouse|control|control (ssRNA)
# RNA: GGGAGUUCUACAGUCCGACGAUCUGCCCAGAAGAGCAGUAGCUCCUCUUCCUUCUGGUCAGCCUGGGAGGCCAUGCCUGAGUCACUCUCAUCAUCACUGUCAAUCAGCACCAUGUUGUCCCUAUCCUGAGGCCGCUCUUCCUCCAACAGAGGAUUGAGCAUCA
# B8: chr4:17845017:17845018:+_ENSG00000109805_ENST00000514176|hu_mus|hu_hu_hu_mus_False|78_88 (ssRNA)
# RNA: GGGAGUUCUACAGUCCGACGAUCGCUCUCUUAACUUGUAUCUUCAUGAGAAAUUGGGCAAGGUUAAAGUUUACUUUUCUGUAGCGCAGCUGUUUUGGCUCGUCUGGGUAAUCUCAUCUUCAUUUCUGAUGGUGGUUCAUGAUCCAACAGAGGAUUGAGCAUCA
# B9: chrX:132779699:132779700:+_ENSMUSG00000042712_ENSMUST00000048687|mus_mus|motif|central (ssRNA)
# RNA: GGGAGUUCUACAGUCCGACGAUCAUUGAAGCAAGCUGUCUCUUCUGGCCGCUGGCCUCUCGCACCACCGUCUGCAAGGCGGAAGGGAGCUGGUACCCAGAUGGAAACAAGGACCAGACUAGCAGGAUUUCUGCACACGUCGACCAACAGAGGAUUGAGCAUCA
# B10: chr11:20128097:20128098:-_ENSMUSG00000044066_ENSMUST00000050611|mus_mus|motif|central (ssRNA)
# RNA: GGGAGUUCUACAGUCCGACGAUCUGCUUUUGACCAAUUCUAGGUUUUAUAGGAUAUUUUACAUUUAACUUAAAUUAUUUGCGGGAAAAGUUUUGUUUUAGCCUCUUGAAAGCACUUUAUGUACCAUGUACAGUAUAAGAAAUACAACAGAGGAUUGAGCAUCA
# B11: chr5:66692119:66692120:-_ENSMUSG00000029207_ENSMUST00000159786|mus_hu|motif|central (ssRNA)
# RNA: GGGAGUUCUACAGUCCGACGAUCAAUACCACUGCGUAAGGAAUUUGGACAUCUUUCUCCCACUCGUGUAGGGAAUUCGGAGAUUCCCUGACAAUAGAUCUUUCCAUACCUGCUCUUCUUAGUAUAUGCCCAGAAUCAUUCUGGCAACAGAGGAUUGAGCAUCA
# B12: chr9:110451855:110451856:+_ENSMUSG00000044791_ENSMUST00000153838|mus_mus|motif|central (ssRNA)
# RNA: GGGAGUUCUACAGUCCGACGAUCAACUGGCAAAGACAUGAGUUUAUCAUGGUGUGGUGACAACAAAGGUUCCAUUUCCCGGAAUGGACUUUUUGACGUAUUAUGCUGCCUACAAGUAUCAUCUGAGUCCCUUUCUCUGCAUCUCAACAGAGGAUUGAGCAUCA
# B13: chr1:46159212:46159213:+_ENSG00000159596_ENST00000372025|hu_mus|hu_hu_hu_mus_True|18_68 (ssRNA)
# RNA: GGGAGUUCUACAGUCCGACGAUCUCUGAUCCCUCCCAAGAAAGCUAGGAAACCGGCUCCAUAAGCCAUCUGAGUAAAAGCUAGGACGGGGAUAUAAGACUUUGUUAUUACCAUGAGCAGUGGUGGAGCAGUAAAGGGGAUUAACAACAGAGGAUUGAGCAUCA
# B14: chr2:187371472:187371473:+_ENSG00000065548_ENST00000337859|hu_mus|FALSE|FALSE (ssRNA)
# RNA: GGGAGUUCUACAGUCCGACGAUCACUGGCCACAGUGAUACCUGUCUCUUCUACAUCUCUUGGGACGUACAGGCUUAUAUCUAUGUCAUUUACACCCAUAGAAUCAUCAACCUCAUCACCACCUGUUCCCUGAAUGUAACGGGUCAACAGAGGAUUGAGCAUCA
# B15: chr8:109229674:109229675:-_ENSG00000104408_ENST00000220849|hu_hu|FALSE|FALSE (ssRNA)
# RNA: GGGAGUUCUACAGUCCGACGAUCGUUUGUUAUGACUGCUGUAGUCAAAUAGCGAAGAAUGUGUGGACACAUUGUCUGAAUUGCAUUAAGAUAUUGUGGCUGAUAAAGGAAGAGGUCAAUAAUAUUAUCGCGACCUUUGGGGUGCAACAGAGGAUUGAGCAUCA
# B16: 66262441_66262561_646_CDS_ENSMUSG00000047534_ENSMUST00000052201|mouse|control|control (ssRNA)
# RNA: GGGAGUUCUACAGUCCGACGAUCAUAGGUUUGUUGCAACUGAGCUUUCUUAUCCGUGUUAGGAGGAAAGUCUUUGGUGUGUUCACCCUGUGGUGAUCCCAACAUGCUACUGCUCCUUGUCAGUUGUUCUUGUUUGUCACGCUGCAACAGAGGAUUGAGCAUCA
# B17: 132215306_132215426_5256_3pUTR_ENSG00000072364_ENST00000265343|human|control|control (ssRNA)
# RNA: GGGAGUUCUACAGUCCGACGAUCUCUUCAUUUAAAGGUAAGAUUUAAGGCACACCAAACAUGAUAGGGGCAUGAAAAAUAAAGUAUAGAGGGUACAUUUCUUAUCUUAGACUUCUAUAUGCACCUUGUAGCAAAAGGUACUUUCAACAGAGGAUUGAGCAUCA
# B18: chr3:148802587:148802588:-_ENSG00000071794_ENST00000310053|hu_mus|hu_hu_hu_mus_False|1_108 (ssRNA)
# RNA: GGGAGUUCUACAGUCCGACGAUCUCCAACCACAUGACCUCUCAUAGUUCCAAAUAAAACCAAAUCUUGCUCUUCAUCACUCGUUAGGAAGUCAUCUGGAGGAAUAAUGUCUUGGAAUUCAAAAUGUGGCAAGAAAGUUGGAUACAACAGAGGAUUGAGCAUCA
# B19: chr18:9122563:9122564:+_ENSG00000178127_ENST00000318388|hu_hu|motif|central (ssRNA)
# RNA: GGGAGUUCUACAGUCCGACGAUCGACCUGAAUGUGAUACUUUCCAACUGGCUUUCGAUUAUACAUUGUAUAAAAAGUUGCGGCUUCAUAUACUCUCAUUGGAGGUACUUGUAAAACUUCUGCAACCUUGUUCAUAGCAGAGAUCAACAGAGGAUUGAGCAUCA
# B20: 88224870_88224990_542_CDS_ENSMUSG00000050144_ENSMUST00000057935|mouse|control|control (ssRNA)
# RNA: GGGAGUUCUACAGUCCGACGAUCAUCGAAGGUCCCGUGGUAGAGGCUCUUGCCCUUCUGGACCUGCAGGCGGGUGCGGAUGAGGGUGAACGGGUACACGCUGACCCUGAUCAUCAUUGUCAUAGCAACACCAAACACAUAGAACAACAGAGGAUUGAGCAUCA
# B21: chr2:183846084:183846085:-_ENSG00000061676_ENST00000360982|hu_hu|FALSE|FALSE (ssRNA)
# RNA: GGGAGUUCUACAGUCCGACGAUCAAGGUACUGCACGUAAUACCUCUGCAUUACAGGUCCGUAUUUCCUCACAUGUGCUCUAAGUUCUUCCAUGUAAAAUAUUAAUUCAGCAAUGUGCUUAUCUAUAAAGUCGUCUGCACUCUUCAACAGAGGAUUGAGCAUCA
# B22: chr4:95690885:95690886:+_ENSMUSG00000028572_ENSMUST00000156910|mus_mus|mus_mus_mus_hu_False|88_108 (ssRNA)
# RNA: GGGAGUUCUACAGUCCGACGAUCUUUAUUUUUAGAAAAAUACCAUGAGCAUGCUAAUUCAAAGGCUUAUUUUAUUUUACCAGAAGUCACAGGCAAGCAGACACUACAAGAAUAUAUGAAAAUGAAACUCAACAAUAUAACUGUCAACAGAGGAUUGAGCAUCA
# Biological target: T1, UNK ZnF1-3
# Assay: nsRBNS (natural sequence RNA bind-n-seq); RBNS binding buffer (assumed for nsRBNS): 25 mM Tris pH 7.5, 150 mM KCl, 3 mM MgCl2, 0.01% Triton X-100, 500 ug/ml BSA, 20 U/ml SUPERase-In, 4 C; UNK is unkempt and MSI1 is Musashi-1; names of the RNAs are library labels; protein concentration not given here; high values mean tight binding
row,Binder,binding signal [enrichment R]
1,B1,0.785
2,B2,0.965
3,B3,1.62
4,B4,0.687
5,B5,1.1
6,B6,2.55
7,B7,1.06
8,B8,0.554
9,B9,2.04
10,B10,1.01
11,B11,0.822
12,B12,1.25
13,B13,2.23
14,B14,0.625
15,B15,1.42
16,B16,0.317
17,B17,1.44
18,B18,1.29
19,B19,0.818
20,B20,0.775
21,B21,1.01
22,B22,2.02
